In PubChem BioAssay AID662 (National Center for Advancing Translational Sciences (NCATS), 2007):
In all, about 71,000 compounds went through this assay and about 1,800 (2.5%) were called active. Inconclusive results, whose numbers are uncertain, are shown with a selection of clear calls. Calls follow the shape of the dose curve; as a rule, active = well fitted activation curve with a large enough effect in the signal ratio, with a control signal flat (not every such curve was filed as active); inconclusive = small, poorly fitted or top-dose-only effect, or effect the other way, or a change in a side signal; inactive = flat fitted curve, though single readings scatter; the % refers to the signal ratio. Potencies beside an inconclusive call are fits to weak or partial responses and may not hold up.

test: Cell signaling CRE-BLA (Fsk stim); conditions: CHO CRE-bla reporter (cAMP response element driving beta-lactamase), forskolin EC10, beta-lactamase ratio; activity change, negative = inhibition: at 38.2 µM (top of the series) unless noted; as to activity change, negative = inhibition: % of control where 0% means no effect
Summary of the method: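 CRE-bla CHO cells stimulated with EC10 NKH 477 (water-soluble forskolin) and compound titrations, 3 h at 37C; beta-lactamase read with CCF4 after 2 h at room temperature. Activity from 460/530 nm emission ratio, AC50 values for positive or negative modulation.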
Potency is read from the fitted curve at half-maximal effect; tags tell the direction and shape of the fitted curve.

Row | SMILES | Potency | activity change, negative = inhibition
1 | Cc1cc(Nc2ccc(F)c(Cl)c2)n2nc(C)nc2n1 | inconclusive: 12.6 µM [rising, partial curve] | –
2 | CN1CCN(c2ncc3nc(CCc4ccccc4)c(=O)n(C)c3n2)CC1 | inactive | –
3 | O=C(Nc1ccc2c(c1)OCO2)C1CCCN1C(=O)OCc1ccccc1 (centres undefined) | – | inconclusive: -9.56% [at 7.6 µM]
4 | CCNc1ncc2nc(-c3ccc(Cl)cc3)c(=O)n(CCC#N)c2n1 | active: 2 µM | –
5 | O=C(Cn1nnc2c(cnn2-c2ccc(F)cc2)c1=O)c1ccccc1F | inactive | –
6 | CCOC(=O)c1c(N)sc(C(=O)N2CCCC2)c1C | inconclusive: 12.6 µM [rising, single point] | –
7 | COc1ccc(-n2c(=O)c(CCc3ccccc3)nc3cnc(N4CCOCC4)nc32)cc1 | – | inconclusive: 7.41%
8 | CCCCCc1c(C)nc(N2CCOCC2)[nH]c1=O | – | inconclusive: 11.5%
9 | NCCS(=O)(=O)O | inconclusive: 31.6 µM [rising, single point] | –
10 | Cc1c(NC(=O)c2cnn3c(C(F)(F)F)cc(-c4ccco4)nc23)c(=O)n(-c2ccccc2)n1C | inactive | –
11 | Cc1cccc(OCC2=N/C(=C\N(C)C)C(=O)O2)c1 | inactive | –
12 | COc1cc2nc(N3CCN(C(=O)c4ccco4)CC3)nc(N)c2cc1OC | – | inconclusive: 23.5%
13 | O=C(NCCCN1CCOCC1)c1cc2ccccc2oc1=O | inactive | –
14 | Cc1ccc2nc(-c3ccc(NC(=O)c4ccc(N)cc4)c(S(=O)(=O)O)c3)sc2c1 | – | inactive: 2.47% [at 7.6 µM]
15 | O=S(=O)(c1ccc(N2CC=C(c3ccccc3)CC2)nc1)N1CCCC1 | inconclusive: 25.1 µM [rising, single point] | –
16 | Cc1cc2ccc(C)c(C)c2nc1SCC#N | inactive | –
17 | O=C(Cn1cnc2c(nnn2Cc2ccc(F)cc2)c1=O)NCc1ccco1 | inactive | –
18 | COc1ccc(OC)c(N2C(=O)[C@@H]3C(c4ccccc4Cl)=NO[C@@H]3C2=O)c1 | inactive | –
19 | Cc1ccccc1Cn1cc(S(=O)(=O)CC(=O)Nc2nccs2)c2ccccc21 | – | inconclusive: -14%
20 | CCOC(=O)C(C)(C)[C@H](O)C(C)C | – | inactive: -2.18% [at 7.6 µM]
21 | CC(C)(C)C(=O)CSc1nccc(=O)[nH]1 | inconclusive: 2.51 µM [rising, partial curve] | –

Row | SMILES | Potency | activity change, negative = inhibition
22 | Cc1ccc(OCCn2c(C)c(/C=N/n3cnnc3)c3ccccc32)cc1 | active: 1.58 µM | –
23 | CC(C)C1C(C#N)=C(N)SC(N)=C1C#N | – | inconclusive: -10.8% [at 7.6 µM]
24 | CC(=O)O[C@H]1CC[C@@]2(C)[C@@H](CC[C@@]3(C)[C@H]2C(=O)C=C2[C@H]4C[C@](C)(C(=O)OCCN5CCCCC5)CC[C@]4(C)CC[C@@]23C)C1(C)C | – | inconclusive: -5.24%
25 | Cc1ccc(-c2nc3c(=O)n(C)c4ccccc4c3o2)cc1 | – | inconclusive: 12.7%
26 | COC(=O)c1ccccc1NC(=O)C12CCC(C)(C(=O)O1)C2(C)C (centres undefined) | – | inconclusive: 23.3%
27 | COc1cccc(Nc2ncc3nc(C)c(=O)n(C)c3n2)c1 | inconclusive: 2 µM [rising, full curve, poor fit] | –
28 | CC(=O)c1cc(C(=O)Nc2ccccc2C(=O)O)oc1C | inactive | –
29 | CC1(C)CC(=O)c2cc(OCC(=O)NCc3cccnc3)ccc2O1 | – | inconclusive: -8.41%
30 | Cc1cc(C(=O)CSc2nnc(-c3cccnc3)n2-c2ccccc2F)c(C)n1C | – | inconclusive: -5.78%
31 | CSc1ccc2c(c1)N(CC[C@H]1CCCCN1C)c1ccccc1S2 | inactive | –
32 | COc1cccc(Cn2nnc(C(=O)NCc3ccc(F)cc3)c2N)c1 | inactive | –
33 | CCOC(=O)c1[nH]c(C)c(C(=O)NCc2ccc(C)cc2)c1C | – | inconclusive: 20.9%
34 | N#CC(C#N)=C(N)/C(C#N)=C/c1ccc(O)cc1 | inactive | –
35 | CC1(C)Cc2c(sc3c2c(=N)n(Cc2ccco2)c(=O)n3Cc2ccccc2)CO1 | inconclusive: 3.16 µM [rising, partial curve] | –
36 | Cc1ccccc1-c1nnc(SCC(=O)Nc2cccc(C)c2C)o1 | – | inconclusive: -20.7%
37 | Cc1[nH]nc2c1C(c1ccc3c(c1)OCO3)C(C#N)=C(N)O2 (centres undefined) | inactive | –
38 | O=C(CSc1ncn[nH]1)Nc1ccc(Cl)c(Cl)c1 | inconclusive: 15.8 µM [rising, single point] | –
39 | Cc1nc2ccccc2c(=O)n1/N=C/c1cn(-c2ccccc2)nc1-c1cccs1 | active: 2.51 µM | –
40 | CCn1c(SCC(=O)Nc2cc(C)on2)nnc1-c1ccncc1 | inconclusive: 3.98 µM [falling, single point] | –
41 | O=C1CC(=O)CC(c2ccccc2Cl)C1 | – | inconclusive: -21.2% [at 7.6 µM]
42 | N[C@H](CCC(=O)NCS(=O)(=O)O)C(=O)O | inactive | –

Row | SMILES | Potency | activity change, negative = inhibition
43 | Cc1ccc(Cn2nnc3c(=O)n(Cc4cc(C)ccc4C)cnc32)cc1 | – | inconclusive: 15.2%
44 | CCN(C(=O)COc1cc(=O)n(CC)c2ccccc12)c1cc(Cl)ccc1OC | inconclusive: 12.6 µM [rising, partial curve] | –
45 | C[C@@H](C(=O)O)c1ccc(N2Cc3ccccc3C2=O)cc1 | inactive | –
46 | NC(=O)c1ccc(-c2ncc(-c3ccccc3)o2)cc1 | inactive | –
47 | Cc1ccc(S(=O)(=O)N2CCN(Cc3cc(C(C)C)ccc3O)CC2)cc1 | – | inconclusive: -8.55%
48 | Cc1cnc(CNc2ncncc2-c2ccccc2C#N)cn1 | inactive | –
49 | Cc1ccc(CSc2nnc(-c3ccco3)n2N)cc1 | – | inconclusive: -0.441%
50 | CCc1ccc(N2CC(C(=O)Nc3nccs3)CC2=O)cc1 (centres undefined) | inactive | –
51 | CCC(=O)N1CCCc2cc(S(=O)(=O)N3CCN(C4CCCCC4)CC3)ccc21 | inconclusive: 7.94 µM [falling, partial curve] | –
52 | FC(F)(F)c1cc(-c2ccco2)nc(N2CCOCC2)n1 | inconclusive: 3.98 µM [rising, partial curve] | –
53 | O=C(c1cc2nc(C3CC3)cc(C(F)(F)F)n2n1)N1CCCC1 | inconclusive: 12.6 µM [rising, single point] | –
54 | COc1nc(C)nc(Cl)c1NC1=NCCN1 | inactive | –
55 | O=C(NCC1COc2ccccc2O1)C1CCCN(S(=O)(=O)c2cccc3nsnc23)C1 (centres undefined) | – | inconclusive: -36.8%
56 | Cc1cc(N2CCOCC2)c2c(N)c(C)cc(C)c2n1 | inactive | –
57 | CCC(C)(C(=O)NC1CCCC1)N(C(=O)CNC(C)=O)c1ccccc1 (centres undefined) | – | inconclusive: 10.7%
58 | COc1ccccc1C1C=C(c2ccc(Cl)cc2)Nc2nc(NS(C)(=O)=O)nn21 (centres undefined) | inconclusive: 10 µM [falling, partial curve] | –
59 | Cc1ccc2c(c1)N(CCC(=O)NC1CC1)C(=O)C(C)O2 (centres undefined) | inactive | –
60 | COc1cc(Sc2ccc(C)cc2)c(OC)cc1N | inactive | –
61 | COc1ccc2c3c(c(=O)oc2c1OCC(N)=O)CCCC3 | inconclusive: 12.6 µM [rising, partial curve] | –
62 | Cc1nc(SCC(=O)Nc2ccc(C)c(F)c2)c2oc3ccccc3c2n1 | active: 0.631 µM | –
63 | CCOC(=O)c1c(/N=C/N(C)C)sc(C(=O)OC)c1C | – | inconclusive: 26.1%

Row | SMILES | Potency | activity change, negative = inhibition
64 | CC(C)(C)NC(=O)COC(=O)c1snc(C(=O)NC2CCCCC2)c1N | inactive | –
65 | CC(C)C[C@@H](CC(=O)N[C@@H](CCC(=O)O)CC(=O)O)NC(=O)[C@@H]1CCCC[C@H]1NC(=O)C[C@@H](NC(=O)C[C@H](Cc1c[nH]c2ccccc12)NC(=O)[C@@H]1CCCC[C@H]1N)C(C)C | inactive | –
66 | O=C(Nc1ncc(Br)s1)C(Cc1ccccc1)n1cccc1 (centres undefined) | – | inconclusive: -23%
67 | c1ccc2c(c1)Cc1cc3cc4c(cc3nc1-2)OCO4 | inconclusive: 12.6 µM [rising, single point] | –
68 | Cc1nc(N2CCOCC2)c2oc3ccccc3c2n1 | inconclusive: 10 µM [rising, partial curve] | –
69 | CN(C)C(=O)c1ccc(-c2nc(NCc3cccnc3)c3ccccc3n2)cc1 | active: 1.58 µM | –
70 | Clc1ccc(OCc2nn3c(-c4ccco4)nnc3s2)c(Cl)c1 | – | inconclusive: 0.792%
71 | COc1cccc(NS(=O)(=O)c2ccc3[nH]cc(C(=O)NCCCOC(C)C)c(=O)c3c2)c1 | – | inconclusive: -8.76%
72 | COc1ccc2nc3c(cc2c1)c(NC(=O)c1cccs1)nn3CC(C)C | inconclusive: 10 µM [rising, partial curve] | –
73 | CC(C)C1N(c2ccccc2)C(N)=C(C#N)C1(C#N)C#N (centres undefined) | – | inconclusive: -8.06%
74 | c1ccc(COc2nsnc2N2CCOCC2)cc1 | inconclusive: 12.6 µM [rising, single point] | –
75 | Cc1cc(=O)[nH]c2c(C)c(N)ccc12 | – | inconclusive: 16.6%
76 | CCCCC(=O)NC1(C(F)(F)F)C(=O)N(Cc2ccco2)C(C)=C1C(=O)OC (centres undefined) | – | inconclusive: -18.7%
77 | O=c1oc2cc(O)ccc2c2c1CCCC2 | inconclusive: 25.1 µM [rising, single point] | –
78 | CCOC(=O)c1cnn2c(C(F)(F)F)cc(-c3ccco3)nc12 | – | inconclusive: 24.7%
79 | O=C(CCSCCC(=O)NCCN1CCOCC1)NCCN1CCOCC1 | – | inconclusive: -10.8%
80 | OCCSc1nc(-c2cccnc2)nc2ccccc12 | active: 6.31 µM | –
81 | Cc1cccc2cc(CN(Cc3nnnn3Cc3ccco3)C3CCCC3)c3nnnn3c12 | inconclusive: 10 µM [rising, single point] | –
82 | CC(=O)NCCNc1nc(-c2cccc(NS(C)(=O)=O)c2)nc2ccccc12 | inconclusive: 15.8 µM [rising, single point] | –
83 | COc1cc2c(cc1OC)C1=C(C#N)CN(C3CCCCC3)CN1CC2 | active: 1.58 µM | –
84 | Cc1ccc(-c2c3c(=O)n(C)c(=O)n(C)c3c3c(C)cc(C)nn23)cc1 | – | inconclusive: -7.61%
